Laboratory results: ChEMBL document CHEMBL1201862, “PubChem BioAssay data set” (2004)

Tested on: NCI-H322M
Assay: inhibition of tumour cell growth, NCI panel, 48 h

| Structure (SMILES) | GI50 |
| --- | --- |
| Cc1ncc([N+](=O)[O-])n1CCNC(=O)CCCCCn1ccnc1[N+](=O)[O-] | inactive: > 100 µM |
| CC1NC(C(=O)O)Cc2cc(O)c(O)cc21 (configuration not stated) | inactive: > 100 µM |
| C/C(=N\N=C(/S)N(C)C)c1cccc[n+]1[O-] | inactive: 11.5 µM |
| CCOC(=O)c1c(NNc2ccccc2)nc2ccccc2c1-c1ccccc1 | inactive: 41.1 µM |
| O=C(Nc1ccccc1C(=O)NCc1ccccc1)/C(=C/c1ccccc1O)NC(=O)c1ccccc1 | inactive: > 100 µM |
| O=c1c2cc([N+](=O)[O-])ccc2n2n1CCCC2 | inactive: > 100 µM |
| CN1CCc2cc(N)cc3c2C1Cc1ccc(O)c(O)c1-3 (configuration not stated) | inactive: 32.8 µM |
| O=c1[nH]c(=O)n(C2CC(O)C(CO)O2)cc1COCC(F)(F)F (configuration not stated) | inactive: > 100 µM |
| O=C(Nc1cc(C(F)(F)F)ccc1Cl)C(=O)C(C(=O)c1ccc2ccccc2c1)C1OC(=O)c2ccccc21 (configuration not stated) | inactive: 5.36 µM |
| CN(C)C(=S)/N=c1\ss/c(=N\C(=S)N(C)C)n1-c1ccc(Cl)cc1 | inactive: > 100 µM |
| C[n+]1cn(CC(=O)c2ccccc2)c(C(N)=O)c1N | inactive: > 100 µM |
| CC(C)(C)c1ccc(O)c(C[N+](C)(C)C)c1 | inactive: > 100 µM |
| COC(=O)C(=O)C(C(=O)C=C(C)C)C(=O)C(=O)Nc1ccc(Cl)cc1C (configuration not stated) | inactive: > 100 µM |
| O=[N+]([O-])c1ccc(-c2ccc(-c3csc(Nc4ccccn4)n3)o2)cc1 | inactive: > 100 µM |
| NC1CC(=O)c2sccc21 (configuration not stated) | inactive: > 100 µM |
| COC(=O)c1ccccc1C1CN=NC12Cc1ccc3c(c1C2=O)CCC3 (configuration not stated) | inactive: > 100 µM |
| N/N=C(\c1nc2ccc([N+](=O)[O-])cc2nc1O)C(O)c1ccc(Cl)c(Cl)c1 (configuration not stated) | inactive: > 100 µM |
| CN1C(=N\S(=O)(=O)c2ccc(Cl)cc2)/C(=N/N=P(c2ccccc2)(c2ccccc2)c2ccccc2)c2ccccc21 | inactive: > 100 µM |
| CC1=C(C#N)C(N)=C2C(C)=C(C#N)C(N)=C12 | inactive: > 100 µM |
| O=C1NC(=O)C2=C1CCC2O (configuration not stated) | inactive: > 100 µM |
| N#[N+]c1ccccc1Sc1ccc(Cl)cc1 | inactive: > 100 µM |
| CCSc1n/c(=C\c2ccco2)c2nnnn12 | inactive: > 100 µM |
| CCOC(=O)c1ccc(Nc2c3c(nc4ccccc24)CCCC3)cc1 | inactive: > 100 µM |

| Structure (SMILES) | GI50 |
| --- | --- |
| CCC(CC)n1c(C)nc2c1C(=O)c1ccccc1C2=O | inactive: 76.2 µM |
| COc1ccc(/C=N/NC(=O)c2cnc3[nH]c(=O)n(C)c(=O)c3c2)cc1 | inactive: > 100 µM |
| O=[N+]([O-])c1ccc(-c2cnc3ccccn23)cc1 | inactive: > 100 µM |
| CCOC(=O)CCC(NC(=O)c1ccc(CNc2nc3ccccc3nc2C(=O)OCC)cc1)C(=O)OCC (configuration not stated) | inactive: > 100 µM |
| CN(C)CCc1ccc(Cl)cc1Cl | inactive: > 100 µM |
| Cc1c2cnccc2c(C)c2c1c1ccccc1n2CCCCCCNCc1ccccc1 | inactive: 1.17 µM |
| Cc1n[nH]c(=O)n1/N=C/c1cccs1 | inactive: > 100 µM |
| Nc1[nH]c(=S)[nH]c(=O)c1/N=N/c1c(Br)cc(S(N)(=O)=O)cc1Br | inactive: > 100 µM |
| Cc1ccccc1C(C#N)/C(=N/NC(N)=S)C(=O)Nc1c(C)cccc1C (configuration not stated) | inactive: > 100 µM |
| CN1C(=O)N(c2ccccc2)C2(CCN(CC3COc4ccccc4O3)CC2)C1=O (configuration not stated) | inactive: > 100 µM |
| COC(=O)N/N=C(\c1ccccc1)c1ccc(OC)cc1 | inactive: > 100 µM |
| O=C(Oc1ccccc1)N1c2ccccc2[C@@]23O[C@]24CCC[C@H]3C#C/C=C\C#C[C@H]14 | inactive: > 10 µM |
| O=C(Nc1ccccc1C(=O)O)C(=Cc1ccccc1O)NC(=O)c1ccccc1 | inactive: > 100 µM |
| C[C@]12CC[C@H]3[C@@H](CCC4=CC(=O)C=C[C@@]43OC(=O)C(F)(F)F)[C@@H]1CCC2=O | inactive: > 100 µM |
| CN(C(=O)Cc1ccc(Cl)c(Cl)c1)[C@@H]1CCCC[C@H]1[N+]1(C)CC=CC1 | inactive: > 100 µM |
| COc1cc(Br)c(CC2NCCc3cc(OC)c(OC)cc32)cc1OC (configuration not stated) | inactive: 59.8 µM |
| O=C(CC(=O)N1N=C(N(c2ccccc2)c2ccccc2)CC1c1ccccc1)Nc1cccc(Cl)c1 (configuration not stated) | inactive: > 100 µM |
| Cc1oc2c(Cl)cc(O)c(Cl)c2c2cccc1-2 | inactive: 41.2 µM |
| CC(C)C(OC(=O)c1ccc(NCc2cc(O)ccc2O)cc1)C(C)C | inactive: 5.12 µM |
| COc1cccc(CCNc2c(C#N)c3n(c4ccccc4[n+]3C)c3ncccc23)c1 | inactive: 13.4 µM |
| CCN(CC)CC(=O)N1CCc2c([nH]c3ccccc23)C1c1cccnc1 (configuration not stated) | inactive: > 100 µM |
| NC(=O)c1nnc2cc(F)c(F)cc2c1N | inactive: 48 µM |
| O=C1CCCc2ccc3c(c21)CC1(Cc2ccccc2C1)C3 | inactive: 28.9 µM |

| Structure (SMILES) | GI50 |
| --- | --- |
| O=[N+]([O-])c1ccc2oc(=N/c3ccccc3)/c(=N\c3ccccc3)[nH]c2c1 | inactive: > 100 µM |
| CCc1c(O)nc(Nc2nc3ccccc3[nH]2)[nH]c1=O | inactive: > 100 µM |
| O=C1N/C(=N/N=C/c2c[nH]c3ccccc23)N/C1=C\c1c[nH]c2ccccc12 | inactive: 32.1 µM |
| O=C(O)c1ccccc1/C=N\N=C1NCCN1 | inactive: > 100 µM |
| C=CCC1(C(=O)OC(C)(C)C)C(OC)=C(C(=O)OC(C)(C)C)C2C1C(C(=O)OC(C)(C)C)=C(OC)C2(CC=C)C(=O)OC(C)(C)C (configuration not stated) | inactive: > 100 µM |
| Cc1ccc(/N=N/C(=N/NC(=O)c2cc(Cl)ccc2O)c2ccc(N(CCC#N)CCC#N)cc2C)cc1 | inactive: 29.9 µM |
| C=[N+](CNC(=O)CNC(=O)C(Cc1ccc([N+](=O)[O-])cc1)NC(=O)OC(C)(C)C)C(=O)CNC(=O)C(Cc1ccc([N+](=O)[O-])cc1)NC(=O)OC(C)(C)C (configuration not stated) | inactive: 59.2 µM |
| CCOC(=O)C1C2CCC(C2)C1(CCl)C(=O)OCC (configuration not stated) | inactive: > 100 µM |
| Cc1nnc2n1N=C(c1cc(F)c(Cl)cc1Cl)/C(=C/c1ccc3c(c1)OCO3)S2 | inactive: 23.8 µM |
| N=C(N)NS(=O)(=O)c1ccc(NC(=O)c2ccc3nc4ccccc4c(Nc4ccc(S(N)(=O)=O)cc4)c3c2)cc1 | inactive: > 100 µM |
| COc1ccc(C(=O)N(C(=O)N2CCN(c3ccccc3)CC2)S(=O)(=O)c2ccccc2)cc1 | inactive: 34.9 µM |
| O=c1[nH]c(=O)n(C2OC(COP(=O)(O)OP(=O)(O)O)C(O)C2O)cc1F (configuration not stated) | inactive: 4.47 µM |
| CC1CC2C3CCC4=CC(=O)C=CC4(C)C3(F)C(O)CC2(C)C1(O)C(=O)COP(=O)(O)O (configuration not stated) | inactive: > 100 µM |
| C=CCC1([C@H](C)[C@@H](OC(C)=O)c2cc(OC)c(OC)c(OC)c2)C[C@@H](OC)CCC1=O (some centres not stated) | inactive: 21.3 µM |
| CC(CC(N)C(=O)O)C(=O)O (configuration not stated) | inactive: > 100 µM |
| Nc1ncnc2c1ncn2C1CC(O)C(CO)O1 (configuration not stated) | inactive: > 100 µM |
| C[N+]1(C)CC[N+](C)(C)[BH-]1C(O)O | inactive: > 100 µM |
| Cn1c(O)c(C2=Nc3ccccc3C2=O)c2ccccc21 | inactive: > 100 µM |
| COc1cc(O)c(C(C)=O)c(O)c1 | inactive: > 100 µM |
| CCCC(=O)NC(Nc1ccc(S(=O)(=O)Nc2cc(C)on2)cc1)(C(=O)OCC)C(F)(F)F (configuration not stated) | inactive: > 100 µM |
| COC(=O)c1cc2c3ccccc3n(C(C)=O)c2cn1 | inactive: 36.5 µM |

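Grown in 96-well plates, cells were treated for 48 hours with each compound at five concentrations. Insufficient inhibition: endpoint recorded as highest concentration tested. The concentration for 50% growth inhibition is given as GI50.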 Calls of active or inactive are those of the source. Cut-off read from the data, not from the text of the source: active = GI50 up to about 1.1 µM and inactive = higher.
